The values that follow come from PubChem BioAssay AID463173 (ICCB-Longwood Screening Facility, Harvard Medical School, 2010).

The structures appear in SMILES notation. Hit rate of the full screen: of about 52,000 compounds, about 4,300 (8.3%) were called active. Rule as the data show it: active = survival mostly below about 52% (no sharp cut-off); inactive = mostly above about 56%. Some of the results follow.

For this experiment, the system named is DeltatarO mutant. The experiment is described as follows: S. aureus survival, RN4220 and DeltatarO strains – OD600, teichoic acid synthesis inhibitors, primary screen (AID 463173). The following applies: S. aureus RN4220 wild type/DeltatarO growth, OD600, 18 h, active compounds read low, screened at 18.75 µg/mL (by protocol).
For `Cc1cccc(CCNC(=O)CN(c2ccc(C(C)C)cc2)S(=O)(=O)c2c(C)nn(C)c2C)c1`, the survival is inactive: 68%.

Turning to `Cc1ccc(NC(=O)N2CCN(c3cc(-c4noc(C)n4)ccc3C)CC2)c(C)c1`, the survival was inactive: 88%.

In the case of `Cc1ccccc1-c1nnc(SCC(=O)N(C)C2CCCCC2)o1`, the survival is inactive: 67%.

On to `CCNC(=O)c1ccc(CSc2nc3ccncc3n2Cc2ccc(F)cc2)cc1`, for which the survival is inactive: 91%.

For the molecule `O=C(CN1C(=O)CSC1=O)Nc1cccc(Cl)c1`, the survival is inactive: 104%.

For `COC(=O)C(C)n1cnc2sc3c(c2c1=O)CCCC3` (centres undefined), the survival is inactive: 92%.

Consider `COc1ccc(-c2ccc(NS(=O)(=O)c3cccc(C)c3)cc2)nn1`, for which the survival was inactive: 75%.

As to `COc1ccc(OCC(=O)NC2CC(=O)N(c3ccc4c(c3)OCCO4)C2)cc1` (centres undefined), the survival was inactive: 67%.

As for `CCc1ccc(NS(=O)(=O)c2c(C)nc3sc(CC)nn3c2=O)cc1`, the survival was inactive: 72%.

On to `Cc1ccc(C)c(CN2C(=O)C3(c4ccccc42)N(c2ccc(Cl)cc2)C(=O)CS3(=O)=O)c1` (centres undefined), for which the survival is inactive: 78%.

On to `COc1ccc(CCNC(=O)C2CCN(c3nc4ccccc4nc3C(F)(F)F)CC2)c(OC)c1`, for which the survival is inactive: 57%.

Regarding `Cc1ccc(OCC(=O)Nc2nc(-c3ccc(Br)cc3)ns2)cc1C`, the survival was inactive: 110%.

Take `COc1ccc(CNc2nc3ccccc3c3nc(-c4ccccc4)nn23)cc1`: the survival is active: 35%.

`O=C(O)c1ccc(NC(=S)N2CCCCC2)cc1`: the survival is inactive: 81%.

For the molecule `Cc1ccccc1OCC(=O)Nc1ccc2nc(SCc3ccccc3)sc2c1`, the survival was inactive: 88%.

Take `CCc1ccccc1NC(=O)c1ccc(CN2C(=O)CCn3nc(C)cc32)cc1`: the survival was inactive: 83%.

On to `COCCNC(=O)C1CCN(c2nc3ccccc3nc2C(F)(F)F)CC1`, for which the survival is inactive: 105%.

Regarding `COc1cc2c(cc1OC)n(Cc1ccc([N+](=O)[O-])cc1)c(=O)n1nc(-c3ccccc3)nc21`, the survival was inactive: 116%.

Consider `COc1cc2c(cc1OC)C(COc1ccc3c(C)cc(=O)oc3c1)N(C(=O)c1ccccc1F)CC2` (centres undefined), for which the survival was inactive: 50%.

Turning to `CC(=O)N1c2ccccc2CC1C(=O)NCc1cccc(Cl)c1` (centres undefined), the survival was inactive: 94%.

Turning to `COc1ccc(-c2cc(C)no2)cc1S(=O)(=O)N1CCN(c2ccccc2F)CC1`, the survival is inactive: 102%.

On to `Cc1cccc(NC(=O)CSc2nc(-c3ccccc3Cl)nc3c2Cc2c(CO)cnc(C)c2O3)c1C`, for which the survival was inactive: 117%.

On to `COc1ccc(CCNc2nc3c(-c4cccc(F)c4)nnn3c3ccccc23)cc1OC`, for which the survival was inactive: 60%.

With `CN1C(=O)C(Cc2ccccc2)NC1=S` (centres undefined), the survival is inactive: 77%.

Consider `CCOc1cccc(C2CC(=O)Nc3cc4c(cc32)OCCO4)c1` (centres undefined), for which the survival is inactive: 64%.

Turning to `Cc1ccc(NC(=O)CSc2nnc3[nH]c(=O)cc(-c4ccccc4)n23)cc1Cl`, the survival is inactive: 77%.

Turning to `COCCCNC(=O)c1cn(CCOC)c(=O)c2c1c1ccccc1n2C`, the survival was inactive: 96%.

Consider `Cc1cc(C)c2[nH]c(=O)c(CN(CC3CCCO3)C(=O)NC3CCCCC3)cc2c1` (centres undefined), for which the survival is inactive: 97%.

As for `Cc1ccccc1CNC(=O)CN1C(=O)CSc2ccc(S(=O)(=O)N(C)C)cc21`, the survival is inactive: 78%.

In the case of `COc1ccc(NC(=O)c2c(NC(=O)COc3ccccc3)sc3c2CCC(C)C3)cc1` (centres undefined), the survival is inactive: 120%.

With `O=C(Nc1ccccc1C(F)(F)F)c1ccc2oc(=O)c(S(=O)(=O)c3ccc(F)cc3)cc2c1`, the survival was inactive: 89%.

For the molecule `O=C(NCCC1=CCCCC1)c1ccc2c(=O)n3nc(Nc4ccccc4)sc3nc2c1`, the survival was inactive: 87%.

For `Cc1ccc2ncc(C(=O)N3CCN(c4ccccc4F)CC3)c(=O)n2c1`, the survival was inactive: 102%.

`CCOC(=O)N1CCc2c(sc3c2c(=O)n(Cc2ccccc2)c(=O)n3Cc2ccccc2Cl)C1`: the survival was inactive: 90%.

Turning to `Cc1ccc(S(=O)(=O)N(CC(=O)NCCc2ccc(Cl)cc2)c2ccccc2C)cc1`, the survival is active: 49%.

In the case of `CCc1ccc(OCC(=O)N(Cc2ccc(C)o2)C2CCS(=O)(=O)C2)cc1` (centres undefined), the survival was inactive: 110%.

Regarding `CCc1ccccc1NC(=O)N1CCc2c([nH]c3ccccc23)C1c1ccc(C)cc1` (centres undefined), the survival was inactive: 76%.

As for `COc1ccc(CCNC(=O)c2cnn(-c3ccc(F)cc3)c2C2CCN(C(=O)OC(C)(C)C)CC2)c(OC)c1`, the survival is inactive: 87%.

On to `Cc1ccc(CSc2oc(-c3cccs3)nc2S(=O)(=O)c2ccccc2)cc1`, for which the survival is inactive: 65%.

As to `CC(=O)c1ccc(N2CCN(c3ncnc4c3nc3n4CCCC3)CC2)cc1`, the survival is inactive: 75%.

Regarding `COc1ccc(CCNC(=O)Cc2c(C)c3c(cc(C)c4c(C)c(C)oc43)oc2=O)cc1`, the survival was inactive: 88%.

For the molecule `O=C1CCCC/C1=N\Nc1ccc(N2CCCCC2)cc1`, the survival is inactive: 90%.

As for `COCCCNC(=O)c1ccc(-n2c(-c3ccccc3)cc3c2CCC(C)C3)cc1` (centres undefined), the survival is inactive: 97%.

For the molecule `COc1cccc(N2CCN(C(=O)c3cccn3-c3nnc(N4CCCC4)s3)CC2)c1`, the survival was inactive: 92%.

In the case of `Cc1cc(NC(=O)OC2CCCC2)ccc1NC(=O)OC1CCCCC1`, the survival was inactive: 75%.

In the case of `Cc1ccnc(NC(=O)Cc2ccc(F)cc2)n1`, the survival is inactive: 101%.

As for `Cc1coc2c(C)c3oc(=O)c(CC(=O)NCCc4ccc(Cl)cc4)c(C)c3cc12`, the survival was inactive: 82%.

`C=CCc1c(C)nc2nc(SCC(=O)Nc3ccc(C)c(C)c3)nn2c1C`: the survival is inactive: 75%.

Take `COc1ccc(NC(=O)C2CCCN(S(=O)(=O)c3ccc4c(c3)oc(=O)n4C)C2)c(OC)c1` (centres undefined): the survival is inactive: 116%.

Regarding `O=C(COc1ccccc1F)Nc1nnc(SCc2cc(=O)c3ccccc3[nH]2)s1`, the survival is inactive: 80%.

In the case of `Cc1cccc(CSc2nc(-c3cccs3)ccc2C#N)c1`, the survival is active: 18%.

Take `CCCn1c(=O)c2sccc2n2c(CCCC(=O)Nc3ccc(Oc4ccc(Cl)cc4)cc3)nnc12`: the survival was inactive: 98%.

For the molecule `Cc1ccc(NC(=O)c2ccc(CN3C(=O)CCn4nc(C)cc43)cc2)c(Cl)c1`, the survival is inactive: 82%.

For the molecule `CC(=O)c1ccc(NS(=O)(=O)c2ccc(-c3cc(C)no3)s2)cc1`, the survival is inactive: 122%.

Regarding `CCOc1ccc(CCNC(=O)C2CCN(C(=O)c3cc4sccc4n3CC)CC2)cc1OCC`, the survival was inactive: 86%.

Take `CCCCOc1ccc(S(=O)(=O)Nc2ccc(-c3ccc(N4CCC(C)CC4)nn3)cc2)cc1`: the survival was inactive: 60%.

With `Cc1cccc(NC2CC(=O)N(c3cccc(Cl)c3)C2=O)c1` (centres undefined), the survival is inactive: 79%.

On to `COc1ccc(CCN2C(=O)c3oc4cc(C)cc(C)c4c(=O)c3C2c2ccccc2F)cc1OC` (centres undefined), for which the survival was inactive: 70%.

On to `COc1cccc(-c2nnc(SCC(=O)NC3CCCCC3)o2)c1`, for which the survival is inactive: 73%.

For the molecule `O=C(CSc1nnc2c3c4c(sc3ncn12)CCCC4)Nc1nccs1`, the survival is inactive: 86%.

On to `O=C(Cn1nnc2c(cnn2-c2ccccc2)c1=O)N(c1ccccc1)c1ccccc1`, for which the survival was inactive: 101%.

As to `CCC1CN(S(=O)(=O)c2cc(-c3onc(C)c3C)ccc2C)c2cc(Cl)ccc2O1` (centres undefined), the survival was inactive: 72%.

As for `NC(=O)C1(N2CCCCC2)CCN(C(=O)Nc2ccc(F)cc2F)CC1`, the survival is inactive: 112%.

`Cc1cc(C)c2c(NCc3ccc(N4CCCCC4)cc3)n[nH]c2n1`: the survival is inactive: 93%.

For the molecule `CCOC(=O)N1CCC2(CC1)OC(=O)C(C)=C2C(=O)NCc1cccc(F)c1`, the survival was inactive: 73%.

With `CCCc1nc2sc3c(c2c(=O)n1N)CCCC3`, the survival was inactive: 97%.

As for `Cc1cccc(NC(=O)CN2C(=O)c3cccc4cccc2c34)c1C`, the survival was inactive: 54%.

For the molecule `CCCN1CCN(c2ncnc3sc(C(=O)Nc4c(C)cc(C)cc4C)c(C)c23)CC1`, the survival is inactive: 72%.

In the case of `O=c1ccc(-c2ccccc2)nn1Cc1ccc(F)cc1Cl`, the survival is inactive: 49%.

`Cc1ccc(Cn2ccnc2SCC(=O)Nc2nc3ccccc3s2)cc1`: the survival was inactive: 99%.

On to `Cc1cc(NC(=O)C2CCN(S(=O)(=O)c3cccc4nsnc34)CC2)ccc1Br`, for which the survival is inactive: 80%.

With `NS(=O)(=O)c1ccc(NC(=O)C(=O)Nc2ccc3nc4n(c(=O)c3c2)CCCCC4)cc1`, the survival was inactive: 89%.

For `Cc1cccc(C(=O)N2c3nc(-c4ccco4)nn3C3(CCCCC3)[C@@H]3CCCC[C@@H]32)c1`, the survival was inactive: 55%.

Turning to `CCN=c1sc(C(=O)NCCc2ccccc2)cc(=O)n1CC`, the survival was inactive: 71%.

Turning to `C#CCOc1ccc(C2CC(=O)Nc3c2c(C)nn3-c2nc(C)cc(C)n2)cc1` (centres undefined), the survival is inactive: 83%.

With `Cc1cccc(-n2ncc3c(N4CCCC(C)C4)ncnc32)c1` (centres undefined), the survival is inactive: 84%.

For `CSc1nn(Cc2cccc(C)c2)c(N)c1S(=O)(=O)c1ccccc1`, the survival was inactive: 124%.

On to `COc1ccc(CNC(=O)c2ccc(NC(=O)N3CCSc4ccccc43)cc2)cc1`, for which the survival was inactive: 56%.

For the molecule `CC(C)CNC(=O)c1ccc(CN2CCOCC2)cc1`, the survival is inactive: 74%.

Regarding `CCOc1ccc2nc(N3CCCC(C(=O)Nc4cc(Cl)c(OC)cc4OC)C3)sc2c1` (centres undefined), the survival was inactive: 90%.

For the molecule `Cc1c(C(=O)Nc2cccc(-c3nc4ccccc4s3)c2)oc2ccccc12`, the survival was inactive: 80%.

As to `COc1ccccc1NC(=O)N1CCN2C(=O)c3ccccc3C12c1ccccc1` (centres undefined), the survival was inactive: 84%.

Take `COc1cc2c(=O)n(CCC(=O)NCC3CCCO3)c(=O)n(CC(=O)Nc3ccc(C)cc3C)c2cc1OC` (centres undefined): the survival was inactive: 65%.

With `Cc1ccccc1Cn1c2ccccc2c2cnn(CC(=O)NC3CCC(C)CC3)c(=O)c21` (centres undefined), the survival is inactive: 64%.

Turning to `CCc1ccc(CNCc2c(C(=O)O)n(Cc3ccc(C)cc3)c3cc(C)ccc23)cc1`, the survival is active: 14%.

Regarding `COc1cc(NC(=O)C(CC(C)C)NS(=O)(=O)c2ccc3c(c2)CCN3C(C)=O)cc(OC)c1` (centres undefined), the survival was inactive: 89%.

Turning to `CC(C)c1ccc2oc(-c3ccc(NC(=O)c4cccc(Br)c4)cc3)nc2c1`, the survival is active: 44%.

Consider `Cc1ccc(NC(=O)CC(C)S(=O)(=O)c2ccc3c(c2)NC(=O)CO3)c(Cl)c1` (centres undefined), for which the survival was inactive: 85%.

With `Cc1ccc2nc(-c3ccc(NC(=O)c4ccc(S(C)(=O)=O)cc4)cc3)sc2c1`, the survival is inactive: 88%.
